PMC10904810
These are yes or no findings as the source states them, for the method shown. In cells and extracts the contact can be indirect. Some results given as binding are weak or reduced against the parent protein; the word gives no strength.

By UniProt entry, the sequences of proteins in these tests, tags left out.
UniProt Q00534: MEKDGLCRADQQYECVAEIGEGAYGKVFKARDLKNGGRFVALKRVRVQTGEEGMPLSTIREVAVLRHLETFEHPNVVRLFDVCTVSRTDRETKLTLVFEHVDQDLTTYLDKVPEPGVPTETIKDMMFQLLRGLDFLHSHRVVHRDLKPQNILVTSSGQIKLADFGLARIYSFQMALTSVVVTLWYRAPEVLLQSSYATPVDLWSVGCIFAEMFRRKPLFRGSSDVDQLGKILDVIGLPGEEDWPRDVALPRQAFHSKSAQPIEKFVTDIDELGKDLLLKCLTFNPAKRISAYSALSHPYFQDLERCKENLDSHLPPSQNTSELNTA
UniProt Q08999: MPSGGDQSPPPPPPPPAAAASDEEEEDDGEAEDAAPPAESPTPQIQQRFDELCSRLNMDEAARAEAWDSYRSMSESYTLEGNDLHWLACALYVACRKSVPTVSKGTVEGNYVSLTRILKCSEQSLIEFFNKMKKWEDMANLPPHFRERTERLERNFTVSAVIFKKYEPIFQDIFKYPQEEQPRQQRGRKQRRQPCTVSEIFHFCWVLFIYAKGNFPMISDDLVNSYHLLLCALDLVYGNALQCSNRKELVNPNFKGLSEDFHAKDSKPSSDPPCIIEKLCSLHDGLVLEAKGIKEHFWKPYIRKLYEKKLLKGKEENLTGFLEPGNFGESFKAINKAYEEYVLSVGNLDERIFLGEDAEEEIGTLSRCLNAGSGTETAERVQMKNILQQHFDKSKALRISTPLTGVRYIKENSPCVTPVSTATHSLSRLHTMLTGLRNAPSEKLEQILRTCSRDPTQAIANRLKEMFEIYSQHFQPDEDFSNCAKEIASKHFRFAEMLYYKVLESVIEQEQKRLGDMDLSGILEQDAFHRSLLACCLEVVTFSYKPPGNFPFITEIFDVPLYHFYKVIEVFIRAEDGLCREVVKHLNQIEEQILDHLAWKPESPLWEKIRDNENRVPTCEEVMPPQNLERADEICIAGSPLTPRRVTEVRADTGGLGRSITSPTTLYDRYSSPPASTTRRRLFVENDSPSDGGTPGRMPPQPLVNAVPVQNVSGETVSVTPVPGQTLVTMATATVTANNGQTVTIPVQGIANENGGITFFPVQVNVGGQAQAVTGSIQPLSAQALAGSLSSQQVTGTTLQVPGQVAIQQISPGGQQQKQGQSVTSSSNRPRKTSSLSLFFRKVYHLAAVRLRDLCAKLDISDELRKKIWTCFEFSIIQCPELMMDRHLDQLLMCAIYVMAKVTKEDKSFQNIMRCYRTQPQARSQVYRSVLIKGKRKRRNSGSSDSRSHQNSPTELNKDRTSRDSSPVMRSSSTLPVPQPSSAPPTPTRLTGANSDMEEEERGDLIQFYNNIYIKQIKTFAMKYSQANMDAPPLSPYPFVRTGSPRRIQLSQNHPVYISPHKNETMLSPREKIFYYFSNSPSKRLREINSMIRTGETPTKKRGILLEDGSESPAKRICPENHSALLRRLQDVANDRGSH

T1: endogenous E3 ubiquitin ligase KLHL42 (human (endogenous in T24)) (UniProt Q9P2K6)
T1 sequence: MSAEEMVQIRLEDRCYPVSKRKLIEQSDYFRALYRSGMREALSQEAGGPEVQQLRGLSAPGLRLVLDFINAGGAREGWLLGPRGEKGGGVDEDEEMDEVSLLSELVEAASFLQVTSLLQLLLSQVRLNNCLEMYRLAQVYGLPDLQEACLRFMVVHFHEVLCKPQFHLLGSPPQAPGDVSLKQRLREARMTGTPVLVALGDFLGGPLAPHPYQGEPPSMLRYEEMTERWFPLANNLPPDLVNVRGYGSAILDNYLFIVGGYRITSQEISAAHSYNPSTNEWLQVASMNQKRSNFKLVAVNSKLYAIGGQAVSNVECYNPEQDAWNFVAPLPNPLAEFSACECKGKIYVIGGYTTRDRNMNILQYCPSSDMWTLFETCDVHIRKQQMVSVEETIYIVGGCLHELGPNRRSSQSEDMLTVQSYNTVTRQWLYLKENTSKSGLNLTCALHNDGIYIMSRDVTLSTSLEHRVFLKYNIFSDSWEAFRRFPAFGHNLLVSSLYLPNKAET

T2: endogenous pRB1 (retinoblastoma protein RB1) (human (endogenous in T24)) (UniProt P06400)
T2 sequence: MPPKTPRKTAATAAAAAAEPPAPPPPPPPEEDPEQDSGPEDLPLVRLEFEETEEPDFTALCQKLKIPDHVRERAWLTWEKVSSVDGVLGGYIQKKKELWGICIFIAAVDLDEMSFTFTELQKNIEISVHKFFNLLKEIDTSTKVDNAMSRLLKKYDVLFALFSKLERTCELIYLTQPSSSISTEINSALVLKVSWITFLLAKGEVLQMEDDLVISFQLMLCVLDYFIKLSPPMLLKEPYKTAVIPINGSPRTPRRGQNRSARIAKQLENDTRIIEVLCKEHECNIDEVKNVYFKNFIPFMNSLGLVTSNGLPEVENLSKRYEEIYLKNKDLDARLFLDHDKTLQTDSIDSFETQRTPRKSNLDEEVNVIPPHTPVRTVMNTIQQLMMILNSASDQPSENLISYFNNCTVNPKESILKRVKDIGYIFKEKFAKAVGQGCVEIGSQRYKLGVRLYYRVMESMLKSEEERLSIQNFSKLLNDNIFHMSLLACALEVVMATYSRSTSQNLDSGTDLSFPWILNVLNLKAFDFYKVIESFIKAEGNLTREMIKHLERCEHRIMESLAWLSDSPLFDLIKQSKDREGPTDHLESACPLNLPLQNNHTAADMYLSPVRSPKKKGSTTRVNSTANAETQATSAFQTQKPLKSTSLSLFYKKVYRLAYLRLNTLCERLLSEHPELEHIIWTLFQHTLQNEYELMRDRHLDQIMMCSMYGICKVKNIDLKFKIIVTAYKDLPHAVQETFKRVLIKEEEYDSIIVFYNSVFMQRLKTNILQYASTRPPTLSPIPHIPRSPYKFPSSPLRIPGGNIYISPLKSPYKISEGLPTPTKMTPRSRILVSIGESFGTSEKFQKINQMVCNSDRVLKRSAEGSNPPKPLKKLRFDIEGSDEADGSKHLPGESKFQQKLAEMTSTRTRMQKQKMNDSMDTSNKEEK


Legend:
[1] = target: T1, endogenous E3 ubiquitin ligase KLHL42 (human (endogenous in T24)); experiment: co-IP; endogenous proteins in T24 cells overexpressing MYC; IP of pRB1 (Fig. 3b) and reversed IP of KLHL42 (Fig. 3c); antibody-conjugated protein A/G beads, IP buffer 50 mM Tris-HCl pH 7.4, 150 mM NaCl, 0.1% NP-40, 4 °C overnight
[2] = target: T2, endogenous pRB1 (retinoblastoma protein RB1) (human (endogenous in T24)); experiment: co-IP; ectopically expressed KLHL42 in T24 cells; IP buffer 50 mM Tris-HCl pH 7.4, 150 mM NaCl, 0.1% NP-40, 4 °C overnight (Supplementary Fig. 3a)
[3] = target: T2, endogenous pRB1 (retinoblastoma protein RB1) (human (endogenous in T24)); experiment: co-IP; endogenous proteins in T24 cells overexpressing MYC; IP of pRB1 (Fig. 3b) and reversed IP of KLHL42 (Fig. 3c); antibody-conjugated protein A/G beads, IP buffer 50 mM Tris-HCl pH 7.4, 150 mM NaCl, 0.1% NP-40, 4 °C overnight

binding [1]	Molecule	further results
no binding	CDK6 (from UniProt Q00534 1-326)	–
no binding	RBL2/p130 (from UniProt Q08999 1-1139)	–
–	ectopically expressed KLHL42 (protein, UniProt Q9P2K6 1-505) MSAEEMVQIRLEDRCYPVSKRKLIEQSDYFRALYRSGMREALSQEAGGPEVQQLRGLSAPGLRLVLDFINAGGAREGWLLGPRGEKGGGVDEDEEMDEVSLLSELVEAASFLQVTSLLQLLLSQVRLNNCLEMYRLAQVYGLPDLQEACLRFMVVHFHEVLCKPQFHLLGSPPQAPGDVSLKQRLREARMTGTPVLVALGDFLGGPLAPHPYQGEPPSMLRYEEMTERWFPLANNLPPDLVNVRGYGSAILDNYLFIVGGYRITSQEISAAHSYNPSTNEWLQVASMNQKRSNFKLVAVNSKLYAIGGQAVSNVECYNPEQDAWNFVAPLPNPLAEFSACECKGKIYVIGGYTTRDRNMNILQYCPSSDMWTLFETCDVHIRKQQMVSVEETIYIVGGCLHELGPNRRSSQSEDMLTVQSYNTVTRQWLYLKENTSKSGLNLTCALHNDGIYIMSRDVTLSTSLEHRVFLKYNIFSDSWEAFRRFPAFGHNLLVSSLYLPNKAET	binding [2]: binds
–	endogenous E3 ubiquitin ligase KLHL42 (protein, UniProt Q9P2K6 1-505) MSAEEMVQIRLEDRCYPVSKRKLIEQSDYFRALYRSGMREALSQEAGGPEVQQLRGLSAPGLRLVLDFINAGGAREGWLLGPRGEKGGGVDEDEEMDEVSLLSELVEAASFLQVTSLLQLLLSQVRLNNCLEMYRLAQVYGLPDLQEACLRFMVVHFHEVLCKPQFHLLGSPPQAPGDVSLKQRLREARMTGTPVLVALGDFLGGPLAPHPYQGEPPSMLRYEEMTERWFPLANNLPPDLVNVRGYGSAILDNYLFIVGGYRITSQEISAAHSYNPSTNEWLQVASMNQKRSNFKLVAVNSKLYAIGGQAVSNVECYNPEQDAWNFVAPLPNPLAEFSACECKGKIYVIGGYTTRDRNMNILQYCPSSDMWTLFETCDVHIRKQQMVSVEETIYIVGGCLHELGPNRRSSQSEDMLTVQSYNTVTRQWLYLKENTSKSGLNLTCALHNDGIYIMSRDVTLSTSLEHRVFLKYNIFSDSWEAFRRFPAFGHNLLVSSLYLPNKAET	binding [3]: binds
no binding	RBL1/p107 (protein, UniProt P28749 1-1068) MFEDKPHAEGAAVVAAAGEALQALCQELNLDEGSAAEALDDFTAIRGNYSLEGEVTHWLACSLYVACRKSIIPTVGKGIMEGNCVSLTRILRSAKLSLIQFFSKMKKWMDMSNLPQEFRERIERLERNFEVSTVIFKKYEPIFLDIFQNPYEEPPKLPRSRKQRRIPCSVKDLFNFCWTLFVYTKGNFRMIGDDLVNSYHLLLCCLDLIFANAIMCPNRQDLLNPSFKGLPSDFHTADFTASEEPPCIIAVLCELHDGLLVEAKGIKEHYFKPYISKLFDRKILKGECLLDLSSFTDNSKAVNKEYEEYVLTVGDFDERIFLGADAEEEIGTPRKFTRDTPLGKLTAQANVEYNLQQHFEKKRSFAPSTPLTGRRYLREKEAVITPVASATQSVSRLQSIVAGLKNAPSDQLINIFESCVRNPVENIMKILKGIGETFCQHYTQSTDEQPGSHIDFAVNRLKLAEILYYKILETVMVQETRRLHGMDMSVLLEQDIFHRSLMACCLEIVLFAYSSPRTFPWIIEVLNLQPFYFYKVIEVVIRSEEGLSRDMVKHLNSIEEQILESLAWSHDSALWEALQVSANKVPTCEEVIFPNNFETGNGGNVQGHLPLMPMSPLMHPRVKEVRTDSGSLRRDMQPLSPISVHERYSSPTAGSAKRRLFGEDPPKEMLMDKIITEGTKLKIAPSSSITAENVSILPGQTLLTMATAPVTGTTGHKVTIPLHGVANDAGEITLIPLSMNTNQESKVKSPVSLTAHSLIGASPKQTNLTKAQEVHSTGINRPKRTGSLALFYRKVYHLASVRLRDLCLKLDVSNELRRKIWTCFEFTLVHCPDLMKDRHLDQLLLCAFYIMAKVTKEERTFQEIMKSYRNQPQANSHVYRSVLLKSIPREVVAYNKNINDDFEMIDCDLEDATKTPDCSSGPVKEERGDLIKFYNTIYVGRVKSFALKYDLANQDHMMDAPPLSPFPHIKQQPGSPRRISQQHSIYISPHKNGSGLTPRSALLYKFNGSPSKSLKDINNMIRQGEQRTKKRVIAIDSDAESPAKRVCQENDDVLLKRLQDVVSERANH	–
binds	endogenous pRB1 (retinoblastoma protein RB1) (protein, UniProt P06400 1-928) MPPKTPRKTAATAAAAAAEPPAPPPPPPPEEDPEQDSGPEDLPLVRLEFEETEEPDFTALCQKLKIPDHVRERAWLTWEKVSSVDGVLGGYIQKKKELWGICIFIAAVDLDEMSFTFTELQKNIEISVHKFFNLLKEIDTSTKVDNAMSRLLKKYDVLFALFSKLERTCELIYLTQPSSSISTEINSALVLKVSWITFLLAKGEVLQMEDDLVISFQLMLCVLDYFIKLSPPMLLKEPYKTAVIPINGSPRTPRRGQNRSARIAKQLENDTRIIEVLCKEHECNIDEVKNVYFKNFIPFMNSLGLVTSNGLPEVENLSKRYEEIYLKNKDLDARLFLDHDKTLQTDSIDSFETQRTPRKSNLDEEVNVIPPHTPVRTVMNTIQQLMMILNSASDQPSENLISYFNNCTVNPKESILKRVKDIGYIFKEKFAKAVGQGCVEIGSQRYKLGVRLYYRVMESMLKSEEERLSIQNFSKLLNDNIFHMSLLACALEVVMATYSRSTSQNLDSGTDLSFPWILNVLNLKAFDFYKVIESFIKAEGNLTREMIKHLERCEHRIMESLAWLSDSPLFDLIKQSKDREGPTDHLESACPLNLPLQNNHTAADMYLSPVRSPKKKGSTTRVNSTANAETQATSAFQTQKPLKSTSLSLFYKKVYRLAYLRLNTLCERLLSEHPELEHIIWTLFQHTLQNEYELMRDRHLDQIMMCSMYGICKVKNIDLKFKIIVTAYKDLPHAVQETFKRVLIKEEEYDSIIVFYNSVFMQRLKTNILQYASTRPPTLSPIPHIPRSPYKFPSSPLRIPGGNIYISPLKSPYKISEGLPTPTKMTPRSRILVSIGESFGTSEKFQKINQMVCNSDRVLKRSAEGSNPPKPLKKLRFDIEGSDEADGSKHLPGESKFQQKLAEMTSTRTRMQKQKMNDSMDTSNKEEK	–
